{"source": "the supplement of paper PMC3334620", "note": "The full ranking holds about 33,000 sequences; the median of “E-score (-0.5 to 0.5)” is about -0.012, and the highest 2% start at about 0.29. The list shows a part of the results."}
{"target": "T1, Ybr033w (UniProt P38073)", "T1 sequence": "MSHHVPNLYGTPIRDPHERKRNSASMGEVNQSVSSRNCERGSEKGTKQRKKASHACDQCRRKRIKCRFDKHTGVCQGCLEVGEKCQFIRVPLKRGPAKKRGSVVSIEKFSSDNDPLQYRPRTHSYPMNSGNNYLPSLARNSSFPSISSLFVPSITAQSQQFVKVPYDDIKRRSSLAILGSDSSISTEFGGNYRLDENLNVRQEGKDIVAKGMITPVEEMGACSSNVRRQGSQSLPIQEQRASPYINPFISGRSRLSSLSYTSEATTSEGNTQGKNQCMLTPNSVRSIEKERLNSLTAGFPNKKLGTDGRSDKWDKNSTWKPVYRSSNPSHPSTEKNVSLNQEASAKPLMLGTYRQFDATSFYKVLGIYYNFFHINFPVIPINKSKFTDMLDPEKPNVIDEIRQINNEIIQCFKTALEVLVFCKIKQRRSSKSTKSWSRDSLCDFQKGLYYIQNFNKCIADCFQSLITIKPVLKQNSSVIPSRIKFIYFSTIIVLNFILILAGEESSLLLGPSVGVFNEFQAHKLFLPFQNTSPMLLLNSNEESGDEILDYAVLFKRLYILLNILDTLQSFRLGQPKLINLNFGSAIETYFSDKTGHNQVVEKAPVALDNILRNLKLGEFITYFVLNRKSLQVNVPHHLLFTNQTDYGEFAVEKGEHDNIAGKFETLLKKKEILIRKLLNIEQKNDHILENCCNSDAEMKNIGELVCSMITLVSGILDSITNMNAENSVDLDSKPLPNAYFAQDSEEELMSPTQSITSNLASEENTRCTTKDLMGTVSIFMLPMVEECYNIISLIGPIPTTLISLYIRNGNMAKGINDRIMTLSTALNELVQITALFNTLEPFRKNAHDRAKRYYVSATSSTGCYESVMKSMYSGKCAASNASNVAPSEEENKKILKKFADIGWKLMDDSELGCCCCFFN", "assay": "PBM E-score (8-mer binding enrichment) (E-score (-0.5 to 0.5)); higher = stronger / more preferred TF binding; most listed sequences are background and not binding sites", "conditions": "protein concentration: 200 nM; construct: GST-full length", "procedure,_shortened": "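Detection of bound protein used fluorescent anti-GST, with scans normalised by masliner. The proteins were GST-tagged yeast transcription factors applied at about 100-200 nM to universal all-10-mer Agilent arrays made double-stranded by primer extension. Each ungapped eight-base word, pooled with its reverse complement, was scored with an E-score from the Universal PBM Analysis Suite.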"}
{"sequence": "ACCTAATC", "PBM E-score": 0.161}
{"sequence": "TCGCAGCA", "PBM E-score": 0.0667}
{"sequence": "CACGCCCG", "PBM E-score": -0.277}
{"sequence": "CCAGATTC", "PBM E-score": -0.16}
{"sequence": "ATGTGGAG", "PBM E-score": -0.0381}
{"sequence": "GAATGCCC", "PBM E-score": -0.213}
{"sequence": "GAAACATC", "PBM E-score": 0.0437}
{"sequence": "CTGACCAG", "PBM E-score": -0.146}
{"sequence": "AGCGAGAG", "PBM E-score": 0.00928}
{"sequence": "ATAGACGG", "PBM E-score": 0.0323}
{"sequence": "AGTAGAGG", "PBM E-score": -0.227}
{"sequence": "GCCACGAC", "PBM E-score": -0.0933}
{"sequence": "AGTTACGC", "PBM E-score": 0.0115}
{"sequence": "TAACTGTA", "PBM E-score": 0.18}
{"sequence": "AATGACCT", "PBM E-score": 0.00023}
{"sequence": "ATTGGAAC", "PBM E-score": 0.178}
{"sequence": "CTCTGTTA", "PBM E-score": -0.0214}
{"sequence": "CCATGGAA", "PBM E-score": 0.201}
{"sequence": "GTGTGGAA", "PBM E-score": 0.136}
{"sequence": "AGGTGATG", "PBM E-score": -0.257}
{"sequence": "GAAAGGAA", "PBM E-score": -0.0127}
{"sequence": "TAGTATCA", "PBM E-score": 0.319}
{"sequence": "CTACATCA", "PBM E-score": -0.0278}
{"sequence": "GCACTGTA", "PBM E-score": 0.0862}
{"sequence": "ACCTCGTG", "PBM E-score": -0.00908}
{"sequence": "CTCTAATA", "PBM E-score": 0.206}
{"sequence": "AACAGCCA", "PBM E-score": 0.18}
{"sequence": "ACGACCGG", "PBM E-score": -0.141}
{"sequence": "AAACTGAA", "PBM E-score": 0.156}
{"sequence": "ATTATGTG", "PBM E-score": 0.11}
{"sequence": "AAGGGTTC", "PBM E-score": -0.0274}
{"sequence": "ACTTATTG", "PBM E-score": 0.0631}
{"sequence": "ACTTCGCC", "PBM E-score": -0.0391}
{"sequence": "ATGTCGTC", "PBM E-score": 0.0324}
{"sequence": "CCACGATA", "PBM E-score": -0.0117}
{"sequence": "CCTTTACA", "PBM E-score": 0.0118}
{"sequence": "GGGCCTAA", "PBM E-score": -0.269}
{"sequence": "AAGGATAC", "PBM E-score": 0.0266}
{"sequence": "CGAGTTCA", "PBM E-score": -0.00581}
{"sequence": "GCCCTGCA", "PBM E-score": -0.149}
{"sequence": "CGGCTGTA", "PBM E-score": -0.146}
{"sequence": "AAGATACC", "PBM E-score": 0.118}
{"sequence": "AACCGAAG", "PBM E-score": -0.00014}
{"sequence": "AGACGTAA", "PBM E-score": 0.00773}
{"sequence": "CTCCTGAA", "PBM E-score": -0.0383}
{"sequence": "GGATAGAA", "PBM E-score": 0.126}
{"sequence": "CCTGCGAG", "PBM E-score": -0.129}
{"sequence": "GCTAGACA", "PBM E-score": -0.0654}
{"sequence": "ACCGAGAT", "PBM E-score": 0.0351}
{"sequence": "TGATTAAA", "PBM E-score": 0.27}
{"sequence": "ACAGGCTA", "PBM E-score": -0.0126}
{"sequence": "ATTTTAAG", "PBM E-score": 0.12}
{"sequence": "CATTTTCG", "PBM E-score": 0.0456}
{"sequence": "AGGTAACG", "PBM E-score": -0.139}
{"sequence": "AAGGGCGT", "PBM E-score": -0.0443}
{"sequence": "CACTCTCG", "PBM E-score": -0.0438}
{"sequence": "TCGAATAA", "PBM E-score": 0.193}
{"sequence": "CGCCCAAG", "PBM E-score": -0.195}
{"sequence": "CTCGGTCC", "PBM E-score": -0.168}
{"sequence": "CCAGACAC", "PBM E-score": -0.24}
{"sequence": "CTAAACTA", "PBM E-score": 0.0179}
{"sequence": "CATCGCCC", "PBM E-score": -0.235}
{"sequence": "CGTGATAG", "PBM E-score": -0.045}
{"sequence": "CATTACCC", "PBM E-score": -0.29}
{"sequence": "CGGTTACA", "PBM E-score": 0.0159}
{"sequence": "ATGAACAT", "PBM E-score": 0.217}
{"sequence": "CAAACTAG", "PBM E-score": 0.107}
{"sequence": "AGGTGCCC", "PBM E-score": -0.31}
{"sequence": "CAGGATAG", "PBM E-score": -0.00567}
{"sequence": "AGAAAGAG", "PBM E-score": -0.132}
{"sequence": "ATCTTGGC", "PBM E-score": -0.0132}
{"sequence": "GAACAGTC", "PBM E-score": -0.0146}
{"sequence": "CCCGTTTC", "PBM E-score": -0.0848}
{"sequence": "GATACGTA", "PBM E-score": -0.0255}
{"sequence": "ATCTTTCC", "PBM E-score": 0.154}
{"sequence": "ATGTGTGA", "PBM E-score": -0.00036}
{"sequence": "AAGTAATC", "PBM E-score": 0.233}
{"sequence": "ATTCTCGC", "PBM E-score": -0.0709}
{"sequence": "CAAGGTCA", "PBM E-score": -0.117}
{"sequence": "AGTGAAAG", "PBM E-score": 0.125}
{"sequence": "CCATGCCA", "PBM E-score": -0.00619}
{"sequence": "ACAGGGCG", "PBM E-score": -0.153}
{"sequence": "CACACTCC", "PBM E-score": -0.0903}
{"sequence": "TCCAGGGA", "PBM E-score": -0.0294}
{"sequence": "AAGGGCGA", "PBM E-score": -0.26}
{"sequence": "AGGAGCTG", "PBM E-score": -0.209}
